Source: the RNAGym collection of RNA variant scans (doi:10.7554/elife.90254)
Read counts are not given, so values of variants with three or more changes are uncertain.

B1: LINE1-mini (parent)
chain: GGCAGAGCUCAACACAGCGUGGCAAAGUGGCUGUGGCUAGACUGCC

Variants of: B1
Assay: self-cleavage, relative activity (ratio to wild type); higher = more cleavage; in vitro, sequencing; the parent is a self-cleaving ribozyme

Variant	self-cleavage
GGCAGAGCUCAACACAGCUUGGCAAAGUGGCAGUGGAUAGACUGCC	0.03
GGCAGAGCUCAACACAGCGUGGCAAAAAGGCCGUGGCUAGACUGCC	0.08
GGCAGAGAUCAACACAGCGUGGCAAAGUGGGUGUGGCUGGACUGCC	0.01
GGCAGAGCUCAACUCAGCGAGGCAAAGUGGCUGUGGCUGGACUGCC	0.02
GGCACAGCUCAACACAGCGUGGAAAAGUGGCUGUGGCUAGACUGCG	0.04
GGCAGAGCUCAACACAGCUUUGCAAAUUGAAUGUGGCUAGACUGCC	0.08
GGCAGAUCUCAACAAAGCGUGGCAUAGUUGCGGUGGUUUGACUGCC	0.04
GGUAGAGCUAAACUCAGCGUGGCAAAGUGGCUGUGGCUAGACUGCA	0.08
GGCAACGCUCAACACAGCGUGGCAAAGUGGCUGUGGCUAGCCUGCC	0.03
GGCAGUUCUCAACACAGGGUGGCAAAGUGGGUGUGGCUAGACUGCA	0.1
GCCAGAGCUCAACACAGACUGGCAAAGUGGCUGUGGCUAGACUGCC	0.06
GGCAGAGCUCAACACGGCGUGGCACAGUGUCUGUGGCUGGACUGCC	0
GGCAAACCUCAACACAGCGUGGCAAAGUGGCUGUGGCUGGACUGCC	0.1
UGCAGAGCUCAACAGAGCGUGGCAAAGUGUCUGUGGCUAGACUGCC	0.02
GGCAGAUCUCAGCACAGCGUGGCAAAGUGGCUGUGACUAGACUGCC	0.12
GCCAGUCCUCAACACAGCGUGGCAAAGUGGCUGUGGCUAGACCGCC	0.42
GUCAGAGCUCACCACAGCGUGGCAAAGUGUCUGCGGCUAGACUGCC	0.03
GUUAGAGCUCAUCACAGCGUGUCAAAGUGGCUGUGGCUAGACUGCC	0.1
GGCAGAGCUCAACACAGCGUCGUAAAGUAGCAGUGUUUAGACUGCC	0.03

Variant	self-cleavage
GGCCGAGCUAAACACAGCGUGGCAAAGUGGCAGUGGCUACACUGCC	0.01
GGCAGAGCUCAACACAGGGUGGGACAGUGGCUGUGGCUAGAUUGCC	0.08
GGCAGAGCUCAACACAGCGAGGCAAAGUGGCUGUGGCUAGACUGGU	0.16
GGCAGAGCUCAUCACAGCGUGGCAAAGAGGCUGUAGCUAGACUGCC	0.03
GGCAGAGCUCAACACUGCGUGGCAAAGUGGCGGUGGCUCGACUGCC	0.18
GGCAGAGCUCAACACAGAUUGGCAAAGUGGCUGUGGCUAGACUGUC	0.09
GGCUGAGCUAAACACAGAGUUGCAAAAUGGCUGUGGCUAGACUGCC	0.03
GGCAGAGCUCAACAUAGCGUGGCAAAGUGGCCGUGGCUAGAAUGCC	0.08
GGCAGAGCACAACACAGUGUGGCAAAGUGGCUGUGUCUAGACUGCC	0.05
GGCAGAGCUCAUCACAGCGUGACAAAGUGGCUGUGGCAAGACUGCC	0.09
GGCAGAGCACAACACAGCAUGACAAUGUGCUUGUGGCAAGACUGCC	0.02
GGCAGAGGUGAACACAGCGUGGCAAAGUGGCUUUGGCUAGACUGCC	0.03
GGCAGAGCUCAACACAGCGUGGCAAAGGGUCUGUUGCUAUACUGCC	0.11
CGCAGAGCUCAACACAGAGUGGCAAAGUCGCUGUGGCUAGACUGCC	0.11
GGCAGAGCUCAACACAACGCGGCAAAGUGGCUGUGGCUAGACUGCU	0.06
GGAAGGGCUUAACACAGCGUGGCAAAGUAGGUCUGGCUAGACUGCC	0.02
GGCAGAGCUCAACACAGAGUGGCAAAGUGGUUAUUGCUAGACUCCC	0.1
GGCAGAGCUCAAUACAGAGUGGGUAAGUGGCUGUGGCUAGACUGCC	0
GGCAGAGCUCAACACAGCGUGCCAAAGAGUCUGUGGCUAGACUGAC	0.11

Variant	self-cleavage
GGCAGAGCUCAACACAGCAUGGCAAACUGUCUGAGCCUAGACUGCC	0.08
GGCAGAGCUCAAAACAGCGUGGCUAAGUUGCUGUGGAUAGACUGCC	0.03
GCCAGAGCUGAAUACAGCGUGGCAAAGUGGCUGUGUCUAGACUGAC	0
AGCACAGCUCAACACAGCGUGGCAAAGUGGCUGUGGCUAGACUUUC	0.05
GGCACAGCUCAACAAAGCGUGGCUAAGUGGCUGUGACUAGACUGCC	0.03
GGCAGGGCUCAACACAGCGUGGCAAAGUGGUUGUGGCUAGGCUGCC	0.06
GACAGAGCUCAACACAGCGUUGCAAAGUGGCUGUGGCUAGAAUGCC	0.11
GGGAGAGCUCAAAACACCAUGGCAAAGUGGCUGUGGCUAGAGUGCC	0.01
GGCAGAGAUGAACAGAGCGUGGCAAAGUGGCUGUGGCUAGACUGCC	0.03
GGCAGAGCCCAACACAGCGCGGCAAAGUGGCUGUGGCUCGACUGCC	0.04
GGCAGAGCUCAACACAGCGUGGCAAAGUGGCUGUUGCUAGACUGAU	0.05
AGCAGAGUUCAACACAGAGUGGCAAAGUGGCUGUGGCCAGACUGCC	0.41
GGCAGAAAACAACACAGCCUGUCAAAGUGGCUGUGGCUAGACUGCC	0.08
GCCAGCGCUCAGCACGGCGUGGCAAAGUGGCUAUUGAUAGACUGCC	0.15
GACAGAGCUCAACACAGCGUGGCAAAGUGGCUGUGGCUAGUUUCCC	0.09
GGCAGAGCUCAACACCGAGUGGCAAAGUGGAUGUGGCUAGAAUGCC	0.01
AGCAGAGCUCAACACAGCGUGGCAAAGUGGCUGUCGCUACACUGCC	0.05
GGCAGAGCUCAACACAGAGUGGCAAAGAGGCUGUGGCUACACUGCC	0.09
